# Assay results from the antibiotic and cytotoxicity screens of Wong et al. (2023).
# This is one part of the list.
# Tested on: HSkMC (human skeletal muscle cells)
# Assay: cytotoxicity call (relative viability < 0.9)
# Settings: 10 µM
row,Compound,cytotoxicity call
1,C[C@H]1CN([C@@H](C)CO)C(=O)c2cc(NC(=O)NC3CCCCC3)ccc2O[C@H]1CN(C)S(C)(=O)=O,inactive
2,CC(C)(O)C#Cc1ccc([C@@H]2[C@@H](CO)N3CCCCN(S(C)(=O)=O)C[C@@H]23)cc1,inactive
3,COc1cc(-c2cc(=O)c3c(=O)cc(-c4ccc(O)c(OC)c4)n(CCc4ccccc4)c3s2)ccc1O,inactive
4,COc1ccc(S(=O)(=O)Nc2ccc3c(c2)C(=O)N([C@H](C)CO)C[C@@H](C)[C@@H](CN(C)C(=O)Nc2cccc4ccccc24)O3)cc1,inactive
5,C[C@@H]1CN([C@@H](C)CO)C(=O)c2cc(Br)cnc2O[C@H]1CN(C)C(=O)Nc1ccc(F)cc1,inactive
6,C[C@H](CO)N1C[C@H](C)[C@H](CN(C)S(=O)(=O)c2ccc(C#N)cc2)Oc2ncc(C#Cc3ccccc3)cc2C1=O,inactive
7,C[C@H]1CCCCO[C@@H](CN(C)Cc2ccc(C(=O)Nc3ccccc3N)cc2)[C@@H](C)CN([C@@H](C)CO)C(=O)c2cc(N(C)C)ccc2O1,inactive
8,CC(C)NC(=O)N(C)C[C@@H]1Oc2ccc(NC(=O)Cc3ccccc3)cc2C(=O)N([C@@H](C)CO)C[C@H]1C,inactive

# Tested on: HepG2
# Assay: cytotoxicity call (relative viability < 0.9)
# Settings: 10 µM
row,Compound,cytotoxicity call
1,COc1ccc(S(=O)(=O)N(C)C[C@@H]2Oc3c(NC(=O)Nc4cccc5ccccc45)cccc3C(=O)N([C@@H](C)CO)C[C@H]2C)cc1C,inactive
2,C[C@@H]1CN([C@H](C)CO)C(=O)c2cc(C#CCN(C)C)cnc2O[C@H]1CN(C)S(=O)(=O)c1cn(C)cn1,inactive
3,CCOC(=O)c1ccc(CNS(=O)(=O)c2ccc(S(=O)(=O)N3CCOCC3)cc2)o1,inactive
4,COc1ccc(S(=O)(=O)Nc2ccc3c(c2)CC(=O)N([C@H](C)CO)C[C@@H](C)[C@H](CN(C)S(=O)(=O)c2c(C)noc2C)O3)cc1,inactive
5,CC(=O)N(C)C[C@H]1Oc2ncc(C#C[C@@H](C)O)cc2C(=O)N([C@H](C)CO)C[C@@H]1C,inactive
6,O=C(O)C=CC(=O)O.OCCOCCN1CCN(C2=Nc3ccccc3Sc3ccccc32)CC1,inactive
7,NC(CO)(CO)CO.O=C(c1ccccc1)c1ccc2n1CCC2C(=O)O (configuration not stated),inactive
8,Cc1noc(C)c1NC(=O)N(C)C[C@@H]1Oc2ccc(NS(=O)(=O)c3cn(C)cn3)cc2CC(=O)N([C@H](C)CO)C[C@H]1C,inactive
9,O=C(C[C@@H]1CC[C@@H]2[C@H](COC[C@H](O)CN2S(=O)(=O)c2cccc(Cl)c2)O1)NCc1ccncn1,inactive
10,COc1ccc2c3c([nH]c2c1)[C@@H](CO)N(Cc1ccccc1)C[C@]13CCN(CC1)C(=O)Nc1cccc(c1)F,inactive
11,CC(C)(C)[C@H]1COC(=O)[C@@H](NC(=O)OCC2c3ccccc3-c3ccccc32)CC=CC[C@H](CC(=O)NCCO)C(=O)N1,inactive
12,Cc1noc(C)c1NC(=O)Nc1ccc2c(c1)CC(=O)N([C@H](C)CO)C[C@H](C)[C@@H](CN(C)Cc1ccc(C(F)(F)F)cc1)O2,inactive
13,Cc1ccc(C(=N)N)n1C,inactive
14,CCn1nnc2c(=S)nc[nH]c21,inactive
15,C[C@@H]1CN([C@@H](C)CO)C(=O)c2cc(NC(=O)Nc3cccc4ccccc34)ccc2O[C@@H]1CN(C)S(=O)(=O)c1cccs1,inactive
16,COc1ccc(S(=O)(=O)N(C)C[C@H]2OCCCC[C@@H](C)Oc3ccc(NC(=O)Nc4ccc(F)cc4)cc3C(=O)N([C@@H](C)CO)C[C@@H]2C)cc1,inactive
17,COC(=O)c1cc(=O)nc2n1[C@H]1O[C@H](CO)[C@H](O)[C@H]1O2,inactive
18,C[C@@H]1CN([C@H](C)CO)C(=O)c2cc(NC(=O)C3CC3)ccc2O[C@@H]1CN(C)C(=O)NC1CCCCC1,inactive
19,Cc1noc(C)c1NC(=O)Nc1ccc2c(c1)C(=O)N([C@H](C)CO)C[C@@H](C)[C@@H](CN(C)C(=O)NC1CCCCC1)OCCCC[C@H](C)O2,inactive
20,CC[C@@H](O)CNNC(=O)OC(C)(C)C,inactive
21,Cn1cnc(CCNC(=O)C[C@H]2CC[C@H]3[C@@H](COC[C@H](O)CN3C(=O)Nc3ccc(Cl)cc3)O2)c1,inactive
22,CCOC(=O)N(C)C[C@H]1OCc2cn(nn2)CCCC(=O)N([C@@H](C)CO)C[C@H]1C,inactive
23,C[C@@H]1CN([C@@H](C)CO)C(=O)c2cc(NS(=O)(=O)c3cn(C)cn3)ccc2O[C@@H]1CN(C)S(C)(=O)=O,inactive
24,Cc1noc(C)c1S(=O)(=O)Nc1ccc2c(c1)CC(=O)N([C@H](C)CO)C[C@@H](C)[C@H](CN(C)Cc1ccc(Oc3ccccc3)cc1)O2,inactive
